Changes are numbered by the printed parent chain; changes in the protein carry UniProt numbers. Some of the results follow.

The record followed here is article PMC9911399, “Two distinct binding modes provide the RNA-binding protein RbFox with extraordinary sequence specificity”.

The labels stand for the following.
T1: RBFOX1 RRM (Homo sapiens, UniProt Q9NWB1 109-208)
T1 sequence: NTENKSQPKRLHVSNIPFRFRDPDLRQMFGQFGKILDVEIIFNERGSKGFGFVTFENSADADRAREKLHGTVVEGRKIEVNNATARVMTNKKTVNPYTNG

B1: AAGGUUG (DNA:RNA)
RNA: GGGAGACCGGAAUUCAGAUUGUCCAAGGUUGUUAAAUCCCGUCGUAGCCACCA
DNA 1: CAATCTGAATTCCGGTCTCCC
DNA 2: TGGTGGCTACGACGGGATT
B2: UUACCCA (DNA:RNA)
RNA: GGGAGACCGGAAUUCAGAUUGUCCUUACCCAUUAAAUCCCGUCGUAGCCACCA
DNA 1: CAATCTGAATTCCGGTCTCCC
DNA 2: TGGTGGCTACGACGGGATT
B3: AUCCUCG (DNA:RNA)
RNA: B1 RNA with A26U, G27C, G28C, U30C
DNA 1: CAATCTGAATTCCGGTCTCCC
DNA 2: TGGTGGCTACGACGGGATT
B4: GGGCAUA (DNA:RNA)
RNA: B1 RNA with A25G, A26G, G28C, U29A, G31A
DNA 1: CAATCTGAATTCCGGTCTCCC
DNA 2: TGGTGGCTACGACGGGATT
B5: AUUGGCU (DNA:RNA)
RNA: B1 RNA with A26U, G27U, U29G, U30C, G31U
DNA 1: CAATCTGAATTCCGGTCTCCC
DNA 2: TGGTGGCTACGACGGGATT
B6: CCAUCCC (DNA:RNA)
RNA: B2 RNA with U25C, U26C, C28U, A31C
DNA 1: CAATCTGAATTCCGGTCTCCC
DNA 2: TGGTGGCTACGACGGGATT
B7: CGCAACU (DNA:RNA)
RNA: B2 RNA with U25C, U26G, A27C, C28A, C29A, A31U
DNA 1: CAATCTGAATTCCGGTCTCCC
DNA 2: TGGTGGCTACGACGGGATT
B8: GGCCGAU (DNA:RNA)
RNA: B2 RNA with U25G, U26G, A27C, C29G, C30A, A31U
DNA 1: CAATCTGAATTCCGGTCTCCC
DNA 2: TGGTGGCTACGACGGGATT
B9: AGACAAG (DNA:RNA)
RNA: B1 RNA with A26G, G27A, G28C, U29A, U30A
DNA 1: CAATCTGAATTCCGGTCTCCC
DNA 2: TGGTGGCTACGACGGGATT

This assay concerns the target T1, RBFOX1 RRM. As to the kind of experiment: EMSA; HiTS-Eq, 1 nM pool, 10 min; buffer printed only for the single-RNA assays: 10 mM Tris pH 7.5, 150 mM NaCl, 3.4 mM EDTA, 0.001% NP-40, 30 C. The conditions noted are these: tags: His6 N-terminal (pET28a); label: 5' 32P. The gist of the method: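 A pool of RNA with 7 randomized nucleotides, 5′-radiolabelled and with DNA-annealed flanks, was equilibrated at 1 nM for 10 min in 50 µL with purified RbFox RRM, wild type or mutant, across increasing protein concentrations. Free RNA was separated by 8% native PAGE, excised, reverse-transcribed, barcoded by PCR and sequenced. Relative association constants were obtained from read-count changes of each RNA species versus the control reaction and normalised to the cognate motif.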
For orientation: In EMSA bound probe runs differently from free probe, usually more slowly.
As to B1, the binding signal was 0.0131 KA relative to UGCAUGU.
With B2 the figure was 0.00135 KA relative to UGCAUGU; with B3, 0.00352 KA relative to UGCAUGU.
Consider B4, for which the binding signal is 0.0114 KA relative to UGCAUGU.
Take B5: the binding signal is 0.0149 KA relative to UGCAUGU.
In the case of B6 it was 0.00746 KA relative to UGCAUGU.
B7: the binding signal was 0.00615 KA relative to UGCAUGU.
In the case of B8 it was 0.0164 KA relative to UGCAUGU; in that of B9, 0.00636 KA relative to UGCAUGU.
